Measured values from PubChem BioAssay AID1030 (National Center for Advancing Translational Sciences (NCATS), 2008).
Screen size: about 220,000 compounds; about 16,000 (7.3%) were called active. Inconclusive results, whose numbers are uncertain, are shown with a selection of clear calls. Calls come from the whole dose curve; as a rule, active = well fitted inhibition curve with a large enough effect (not every such curve was filed as active); inconclusive = small, poorly fitted or top-dose-only effect, or another doubt; inactive = no such curve, though single readings can be large or run the other way. No potency is given beside an inconclusive call; the fits are too rough.

target: Aldehyde dehydrogenase 1A1 (Homo sapiens) (UniProt P00352); assay: qHTS Assay for Inhibitors of Aldehyde Dehydrogenase 1 (ALDH1A1); conditions: Purified ALDH1A1, NADH fluorescence, propionaldehyde substrate; series mostly up to 75.3 µM;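 for activity, negative = inhibition: plate controls were no enzyme wells and a reference inhibitor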
Potency is the fitted concentration of half-maximal effect; tags give direction and shape of the fitted curve.

Sequence of UniProt P00352 (P00352 whole entry, looked up): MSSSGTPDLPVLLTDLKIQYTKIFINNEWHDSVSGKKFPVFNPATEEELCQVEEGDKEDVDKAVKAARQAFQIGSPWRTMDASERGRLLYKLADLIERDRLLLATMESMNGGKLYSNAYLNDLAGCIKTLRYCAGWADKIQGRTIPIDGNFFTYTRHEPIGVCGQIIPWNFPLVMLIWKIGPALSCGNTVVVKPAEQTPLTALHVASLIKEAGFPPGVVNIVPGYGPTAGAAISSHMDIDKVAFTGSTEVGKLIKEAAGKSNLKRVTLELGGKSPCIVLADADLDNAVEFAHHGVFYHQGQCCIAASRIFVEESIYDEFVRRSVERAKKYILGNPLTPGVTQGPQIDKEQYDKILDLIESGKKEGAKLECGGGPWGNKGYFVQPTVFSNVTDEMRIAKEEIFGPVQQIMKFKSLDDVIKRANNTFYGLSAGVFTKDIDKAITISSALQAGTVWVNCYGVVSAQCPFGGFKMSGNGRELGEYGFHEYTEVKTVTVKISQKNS

SMILES | Potency | activity, negative = inhibition
Cc1cc(C)n(-c2nnc(C)n2/N=C/c2ccc(O)cc2)n1 | inconclusive [inhibitor, partial curve] | 
Cn1c(N)c(C(=O)COC(=O)c2cncc(Br)c2)c(=O)n(C)c1=O | active: 11.2 µM | 
Cc1sc2nc3c(C(=O)N4CCCC4)cc(C(=O)c4ccccc4O)cn3c(=O)c2c1C | active: 20 µM | 
CC1C/C(=N\NC(=S)NCc2ccccc2)CC(C)(C)C1 (configuration not stated) | active: 25.1 µM | 
CCN(CC(=O)Nc1sc2c(c1C#N)CCC(C)C2)CC(=O)NC1CCS(=O)(=O)C1 (configuration not stated) | inconclusive [inhibitor, partial curve] | 
CCCC(=O)Nc1nc(C)c(-c2csc(Nc3ccc(Cl)cc3)n2)s1 | inconclusive [inhibitor, single point] | 
CS(=O)(=O)Nc1cccc(C2=NN(S(=O)(=O)c3ccc(F)cc3)C(c3cccs3)C2)c1 (configuration not stated) | inconclusive [inhibitor, single point] | 
Cn1ncc2c(NCc3ccccc3)ncnc21 | inactive | 
OC(Cn1cncn1)c1ccc(Cl)cc1Cl (configuration not stated) | inactive | 
COc1ccc(S(=O)(=O)N2CCC(C(=O)NCC(c3cccs3)N(C)C)CC2)cc1 (configuration not stated) | inconclusive [inhibitor, single point] | 
O=C(c1ccc(CNc2c(N3CCOCC3)c(=O)c2=O)cc1)N1CC=C(c2ccccc2)CC1 | inactive | 
Cc1ccc(Cn2ccc(NC(=O)c3noc4c3CCCCC4)n2)cc1 | inconclusive [inhibitor, single point] | 
Cc1ccc(S(=O)(=O)NN2C(=O)c3ccccc3NC2c2ccccc2O)cc1 (configuration not stated) | inconclusive [inhibitor, partial curve] | 
CC(=O)OC[C@@H]1O[C@H](C/C=N\O[C@@H]2O[C@H](COC(C)=O)[C@@H](OC(C)=O)[C@H](OC(C)=O)[C@H]2OC(C)=O)C=C[C@@H]1OC(C)=O |  | inactive: 3.64% [at 13.5 µM]
CCCN1C(=O)/C(=C/c2ccncc2)SC1=S | active: 10 µM | 
COc1cc(OC)cc(C(=O)/C=C2\Sc3ccccc3N2C)c1 | inconclusive [inhibitor, single point] | 
CCC(=O)Nc1cc(C(=O)OCC(=O)c2ccccc2Cl)ccc1C | inconclusive [inhibitor, single point] | 
CCOC(=O)C1(Cc2cccc(F)c2)CCN(CC2CC2)CC1 | inactive | 
O=C(O)CCCCCNS(=O)(=O)c1ccc2c(c1)OCCO2 | inconclusive [inhibitor, single point] | 
CCOc1ccc(S(=O)(=O)NCc2csc(C)n2)cc1 | inactive | 
CNc1ccc([N+](=O)[O-])cc1 | inconclusive [inhibitor, single point] | 
S=C(Nc1ccc2c(c1)OCO2)N1CCCC1 | inactive | 
CC(=O)Nc1ccc(NC(=O)COC(=O)c2ccc(C)s2)cc1 | inconclusive [inhibitor, single point] | 
O=C(N/N=C/c1ccccc1O)C1(O)c2ccccc2-c2ccccc21 | inactive | 

SMILES | Potency | activity, negative = inhibition
C/C(=N\NC(=S)Nc1cccc(C)c1)c1ccccc1 | inactive | 
Cc1cc(C)nc(NS(=O)(=O)c2ccc(N/C=C\C(=O)c3cccs3)cc2)n1 | inconclusive [inhibitor, single point] | 
CCN1CCCc2cc(CN(CCN3CCOCC3)C(=S)Nc3ccc(OC)c(OC)c3)ccc21 | active: 3.16 µM | 
O=C(Cn1c(-c2ccccn2)nc2ccccc21)NCCN1CCOCC1 | inconclusive [inhibitor, single point] | 
COc1ccc(-c2ccc(=O)n(CC(=O)NC3CCc4ccccc43)n2)cc1OC (configuration not stated) | inactive | 
O=C(Nc1cccc(S(=O)(=O)NC2=NCCCCC2)c1)c1cc(-c2ccco2)nc2ccccc12 | inconclusive [inhibitor, partial curve] | 
CC1(CC(=O)N/N=C/c2cc([N+](=O)[O-])c(O)cc2O)OCCO1 | inconclusive [inhibitor, single point] | 
COc1ccc(S(=O)(=O)N2CCN(c3c(C)cccc3C)CC2)cc1OC | inactive | 
COCc1cc(C)nc2sc(C(=O)N3CCN(c4ccccc4)CC3)c(N)c12 | inconclusive [inhibitor, single point] | 
Cc1nc(N2CCN(Cc3ccccc3)CC2)nc2c1C(=O)CC(c1ccco1)C2 (configuration not stated) | active: 22.4 µM | 
COc1ccc(OC)c(NC(=O)/C=C/c2ccccc2[N+](=O)[O-])c1 | inconclusive [inhibitor, partial curve] | 
COc1ccc(NS(=O)(=O)c2cccc(NC(=O)CCS(=O)(=O)c3ccccc3)c2)cc1 | inconclusive [inhibitor, single point] | 
CCNc1nc(NC(C)C)nc(N(C#N)CCOc2ccc(Cl)cc2Cl)n1 | inactive | 
Cc1c(CCOC(=O)C23CC4CC(CC(C4)C2)C3)sc[n+]1CC#N | active: 12.6 µM | 
COc1cccc(C2C(=O)c3ccccc3C2=O)c1 | inactive | 
Cn1c(C(=O)NCc2cccnc2)cc2sc(Cl)cc21 | inactive | 
O=C1CC(N2CCN(c3ccc(S(=O)(=O)N4CCCC4)cc3)CC2)C(=O)N1c1ccc(F)cc1 (configuration not stated) | inconclusive [inhibitor, single point] | 
CCOC(=O)CCC(NC(=O)c1ccc(NCN2C(=O)CCC2=O)cc1)C(=O)OCC (configuration not stated) | inconclusive [inhibitor, single point] | 
Cc1cc(NS(=O)(=O)c2ccc(NC(=O)c3cc4c(=O)n5ccccc5nc4s3)cc2)nc(C)n1 | inconclusive [inhibitor, partial curve] | 
CCCC(O)(CCN(C)C)c1ccc(OC)cc1 (configuration not stated) | active: 10 µM | 
CN(C)c1ccc(C=NCC2(O)CCOC(C)(C)C2)cc1 (configuration not stated) | active: 0.447 µM | 
O=C(/C=C/c1ccc2c(c1)OCO2)NCc1cn2cc(Cl)ccc2n1 | inconclusive [inhibitor, single point] | 
COc1ccc(CNC(=O)C2CC(c3cccc(OC)c3)=NO2)cc1 (configuration not stated) | inconclusive [inhibitor, single point] | 
